The RNAGym collection of RNA variant scans (doi:10.7554/elife.90254)
Read counts are not given, so values of variants with three or more changes are uncertain.

B1: LINE1-mini (parent)
chain: GGCAGAGCUCAACACAGCGUGGCAAAGUGGCUGUGGCUAGACUGCC

Variants of: B1
Assay: self-cleavage, relative activity (ratio to wild type); higher = more cleavage; in vitro, sequencing; the parent is a self-cleaving ribozyme
For A14U U43C G44U, the self-cleavage was 0.
A4C G19C G33C showed a self-cleavage of 0.02.
G7C C18A G36A G44A gave a self-cleavage of 0.07.
C8A C10A C15A C37G showed a self-cleavage of 0.02.
In the case of G1C U20A G21A A25U U43C, the self-cleavage is reported as 0.03.
A6G C8G G17A G35A A41C C45A showed a self-cleavage of 0.01.
With G5C G17A C42G G44C the self-cleavage was 0.
With C3U G21U C31U A41C the self-cleavage was 0.02.
Variant G2C C15U A25U G29A C37A has a self-cleavage of 0.02.
For C3G G5U A26G, the self-cleavage was 0.09.
A26C U32A G35C showed a self-cleavage of 0.13.
Work on A4U A11U A26G yielded a self-cleavage of 0.03.
For U28A U34C U43A, the self-cleavage was 0.01.
Variant A4G G7C C10U U20C G29U has a self-cleavage of 0.02.
Variant C10U G40U C45G has a self-cleavage of 0.
C3G A41C G44A gave a self-cleavage of 0.08.
For A11U G17U G33A G36C C46A, the self-cleavage was 0.01.
Work on A26C U32A G33A G35C U38G yielded a self-cleavage of 0.05.
Work on C10U A25U G36A yielded a self-cleavage of 0.03.
A14C G19A A25C showed a self-cleavage of 0.02.
For A14G G22U C37A U38G G40C, the self-cleavage was 0.
For G19A U32G G35U G36C A39U, the self-cleavage was 0.07.
G2A C15A C18A C23U gave a self-cleavage of 0.12.
G2A U20G G22U G29U C31U showed a self-cleavage of 0.15.
In the case of G2A A14U A16G G19C C45G, the self-cleavage is reported as 0.14.
G1A A11G G35U C46A showed a self-cleavage of 0.
U9A G19A C46A showed a self-cleavage of 0.17.
Work on U9G C10U A14C C18A yielded a self-cleavage of 0.02.
With C13G G17A G30A C42A the self-cleavage was 0.01.
Variant A12G G36A A39C has a self-cleavage of 0.03.
For C3A G27U U34A, the self-cleavage was 0.02.
Work on C3G G7U U34C C46A yielded a self-cleavage of 0.07.
In the case of C3G A6U C15U G36A U38A G40U, the self-cleavage is reported as 0.39.
In the case of C15U G22A C31G U32G, the self-cleavage is reported as 0.04.
Variant G2U G29A C31U has a self-cleavage of 0.05.
In the case of G1A C23A C31A, the self-cleavage is reported as 0.73.
In the case of G2A G7A C15A U20C G21C G27C G30A, the self-cleavage is reported as 0.29.
G7A A11G A14C C42A gave a self-cleavage of 0.01.
For A6C G30A C45G, the self-cleavage was 0.07.
In the case of G7C A16C G17U A26G, the self-cleavage is reported as 0.58.
Variant G1U U32C U34A G36A U43A has a self-cleavage of 0.01.
G5U G7U C15U A25C gave a self-cleavage of 0.13.
Work on G17C G33C C42G yielded a self-cleavage of 0.01.
C3A C10U G27U U32G G36A C42G gave a self-cleavage of 0.07.
Work on A11C G17U U28C G30A A41C yielded a self-cleavage of 0.01.
Work on G21U A26G G27C G36C yielded a self-cleavage of 0.05.
Variant C3G C8G G27U U34C U38A C45G has a self-cleavage of 0.03.
G7U A14C G22U G40A showed a self-cleavage of 0.05.
G19C A41C C42U G44C showed a self-cleavage of 0.01.
Work on A12G G22A G40A G44C yielded a self-cleavage of 0.05.
With G7C A26G G35C G44C C45U the self-cleavage was 0.01.
In the case of U20C G29U G35C, the self-cleavage is reported as 0.04.
In the case of C13A C15U G22A, the self-cleavage is reported as 0.07.
A24U A41U C46G showed a self-cleavage of 0.06.
With G2U U34G A39G the self-cleavage was 0.
For A24U U38C G44A, the self-cleavage was 0.02.
C8A U28C C45A gave a self-cleavage of 0.12.
Variant G19U G29U C37G has a self-cleavage of 0.03.
U20G A41U G44A showed a self-cleavage of 0.06.
G1U C10A C37A A39C gave a self-cleavage of 0.03.
For A4U G5U U43A, the self-cleavage was 0.08.
In the case of A6U G17A G36U, the self-cleavage is reported as 0.09.
For C3U C10A G19U G33C, the self-cleavage was 0.06.
With A12G G30A C37G the self-cleavage was 0.01.
C8A U20C C45U gave a self-cleavage of 0.22.
Work on G5A C13A U20A C23U U28A C31G A41U yielded a self-cleavage of 0.01.
In the case of G2U C23A G29C U32G C46A, the self-cleavage is reported as 0.11.
G7U G21A U28A showed a self-cleavage of 0.06.
Work on A11U G30C C42G C46U yielded a self-cleavage of 0.03.
G2U A6G G17U G21A U38A C45U showed a self-cleavage of 0.01.
Variant U9G A16U G27U C42U has a self-cleavage of 0.02.
Variant G2U A14G C18A G22U has a self-cleavage of 0.01.
In the case of G5U C15A G30A, the self-cleavage is reported as 0.1.
In the case of A14U A16G G29C C31A A41C, the self-cleavage is reported as 0.04.
A4C G17A U28A C31U G36A gave a self-cleavage of 0.04.
G2A C10A C23G U38C showed a self-cleavage of 0.05.
Variant C15U C31U G36U has a self-cleavage of 0.06.
Work on C8G A25G G27U yielded a self-cleavage of 0.02.
For C15U G19U U20C A25G, the self-cleavage was 0.26.
Work on A6G U9C C10U A12C C13A G17U A26U yielded a self-cleavage of 0.01.
In the case of C10A G36U C37A, the self-cleavage is reported as 0.01.
Work on A24C G29C C31A U34A yielded a self-cleavage of 0.08.
For C10A G29U G44U C46U, the self-cleavage was 0.04.
Variant A4G C15U A26G G35C A41U C46U has a self-cleavage of 0.01.
For A4U G5C A6C C8A G19A A26U G36C U43C, the self-cleavage was 0.84.
Work on G17U A26C G35C G40C yielded a self-cleavage of 0.07.
G2U C18A G44A showed a self-cleavage of 0.01.
Work on C10G A11G G29A yielded a self-cleavage of 0.01.
Work on C18A U20C A24G C42A yielded a self-cleavage of 0.02.
With C13U U20A A26G G30A C42G the self-cleavage was 0.03.
G29C C37G C42A showed a self-cleavage of 0.01.
For U9G U20G U32G, the self-cleavage was 0.04.
Variant G1U G2A G29A G35C U38C G40A has a self-cleavage of 0.
Variant A6G A16G C31G G33A has a self-cleavage of 0.
With G30A C37G C45U the self-cleavage was 0.06.
Variant A6U A14U C15U A16C has a self-cleavage of 0.06.
A6C G30U C31U G36C gave a self-cleavage of 0.04.
G2U G19A U32A showed a self-cleavage of 0.01.
For G1U A16C G33U G35U, the self-cleavage was 0.07.
C23U G27U C37A showed a self-cleavage of 0.03.
Variant A12G G27U G33C has a self-cleavage of 0.03.
A4U U20C C23G A24C G29U A41G gave a self-cleavage of 0.11.
With C13A G17U U43C the self-cleavage was 0.11.
For G19A C23U G27A G29U C31U, the self-cleavage was 0.77.
For G2A C13G A41U, the self-cleavage was 0.16.
G7U C8G U9A U38A gave a self-cleavage of 0.16.
In the case of A16U G27C G40A C46G, the self-cleavage is reported as 0.04.
For A14U A16C C31U U32C, the self-cleavage was 0.1.
For G2C G19U A41U, the self-cleavage was 0.01.
For G2U A11U U38C, the self-cleavage was 0.
Work on C3G G17C G29A G40C A41C yielded a self-cleavage of 0.01.
With C13U A26C C46A the self-cleavage was 0.22.
With A6C C18A G29U C31U the self-cleavage was 0.
Variant A14G C18A G19C U38G has a self-cleavage of 0.12.
A12C G36U C37U U43A gave a self-cleavage of 0.01.
Work on A14U G35U C45G yielded a self-cleavage of 0.02.
Work on A11C G30A C46A yielded a self-cleavage of 0.04.
Variant G19A U28A C37G has a self-cleavage of 0.04.
In the case of G5U A6U U9A, the self-cleavage is reported as 0.12.
With G5A U28G G40C the self-cleavage was 0.08.
For C13A A14C U34A, the self-cleavage was 0.03.
In the case of G17C G21C U34G, the self-cleavage is reported as 0.02.
Work on G5U C10U C13A G22A C31G A41U yielded a self-cleavage of 0.04.
In the case of C8G U9G C23U U28C, the self-cleavage is reported as 0.06.
A6C G7C G19C G21A G22C C23A U28A U43A showed a self-cleavage of 0.01.
Variant A4U G30A G40U C42G has a self-cleavage of 0.05.
With G7C A16C A39G G44C the self-cleavage was 0.01.
Work on U9C C18U U32G yielded a self-cleavage of 0.05.
With C8U A14G G19A A39G the self-cleavage was 0.02.
G19U A24G A25U G27U gave a self-cleavage of 0.5.
With C8U U9C C15U G35U the self-cleavage was 0.07.
In the case of C3A A12C C13G C46U, the self-cleavage is reported as 0.3.
A6U U20G G33U gave a self-cleavage of 0.01.
Variant A4C G5A A12G has a self-cleavage of 0.02.
Work on G1U U20A A25C C31U U34C C46G yielded a self-cleavage of 0.04.
In the case of G21U G27U G29U G36C, the self-cleavage is reported as 0.03.
In the case of G22A U43C C45G, the self-cleavage is reported as 0.02.
C10G C23G G35C gave a self-cleavage of 0.02.
For C10G G27A G30C, the self-cleavage was 0.06.
U9C C15G G35U gave a self-cleavage of 0.05.
In the case of G5A G17C A41G, the self-cleavage is reported as 0.04.
Work on A4U C8A G27U C31A yielded a self-cleavage of 0.11.
With A4U G17U G29A the self-cleavage was 0.24.
G1U G2C C15G G33U gave a self-cleavage of 0.03.
In the case of G7U A12U C18A U34C, the self-cleavage is reported as 0.12.
C13G A41C C42U showed a self-cleavage of 0.1.
In the case of G2A G30U A41C G44U, the self-cleavage is reported as 0.08.
C3U G17A C37G gave a self-cleavage of 0.01.
A11C C15A G19U G22A C37G A41C G44A gave a self-cleavage of 0.
C3G C10G G30C G33C showed a self-cleavage of 0.01.
G29C U34C G36C showed a self-cleavage of 0.19.
In the case of G1C U20A C37U, the self-cleavage is reported as 0.02.
Work on C3A C37A G40U yielded a self-cleavage of 0.35.
For G22U G27A G30U G35U G36U, the self-cleavage was 0.39.
Variant C3U G21U G33A has a self-cleavage of 0.02.
With C8G C23G A24C A26G C45A the self-cleavage was 0.02.
A4U C37U G40U gave a self-cleavage of 0.1.
In the case of A16C U34G G35C, the self-cleavage is reported as 0.01.
For G27U G33C C42A G44U, the self-cleavage was 0.01.
Variant G1A A14U G35U has a self-cleavage of 0.15.
C18U C23G G40C gave a self-cleavage of 0.05.
U9G A25C U38C showed a self-cleavage of 0.03.
With C3G A6C C23G the self-cleavage was 0.08.
Variant A11C C18A A25U has a self-cleavage of 0.04.
With U9A A25U G29U G44A the self-cleavage was 0.11.
For G5U C8G G22U A25G G29U G35U, the self-cleavage was 0.03.
In the case of A6G C8U G22A G40A C42U, the self-cleavage is reported as 0.02.
